Test results published in PubChem BioAssay AID1346428 (National Center for Advancing Translational Sciences (NCATS), 2018).
Values joined by “and” are separate entries in the source; they are usually repeats but may differ in a detail not shown here. Identical values can stand only once. In all, about 48,000 compounds went through this assay and about 1,200 (2.5%) were called active. Another 2% or so got no clear call; they are omitted.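 How the source made its calls: active means activation of at least 60% and not above a set upper limit (about 1 call in 100 departs from these limits); inconclusive means activation of 40% to 60%, or above that upper limit; inactive means activation under 40%.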 Some of the results follow.

Each compound was assayed against Probable G-protein coupled receptor 32 (Homo sapiens) (UniProt O75388) (assay: qHTS for Agonists of Human Resolvin D1 Receptor DRV1). Details: CHO-K1 GPR32 beta-arrestin PathHunter luminescence, 90 min; at 76.9 µM; active compounds read high; zero percent set by DMSO-only wells.
Chain of UniProt O75388 (O75388 whole entry, looked up): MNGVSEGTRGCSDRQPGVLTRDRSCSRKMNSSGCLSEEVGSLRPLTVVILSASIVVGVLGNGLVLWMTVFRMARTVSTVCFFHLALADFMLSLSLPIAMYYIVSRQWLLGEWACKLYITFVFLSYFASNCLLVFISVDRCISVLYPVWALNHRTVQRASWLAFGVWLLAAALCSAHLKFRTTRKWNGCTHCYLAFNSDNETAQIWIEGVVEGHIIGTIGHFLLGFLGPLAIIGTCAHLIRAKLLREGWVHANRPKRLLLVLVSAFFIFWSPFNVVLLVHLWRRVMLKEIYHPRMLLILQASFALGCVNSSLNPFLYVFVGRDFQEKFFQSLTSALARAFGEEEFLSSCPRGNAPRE
Outline: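 CHO-K1 cells stably expressing ProLink-tagged GPR32 and Enzyme Activator-tagged beta-arrestin were seeded at 2,500 cells/well overnight, exposed to compounds for 90 min at 37 °C, then read by beta-Gal complementation chemiluminescence after 1 h detection reagent.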
Further: 0% is about no effect.

activation, inactive:
COc1cc(-c2ccno2)ccc1S(=O)(=O)N1CCN(c2ccc(C(C)=O)cc2)CC1 3.66%
COc1ccc(N2CCN(S(=O)(=O)CCNC(=O)Cc3ccc(Cl)cc3)CC2)cc1 -3.04%
CCOC(=O)C1CCN(C(=O)Cn2nc(C)n3c(cc4cc(F)ccc43)c2=O)CC1 36.5%
CCn1cc(S(=O)(=O)c2cc(C)cc(C)c2)c(=O)c2cc(F)c(N3CCCC3)cc21 -10.3%
CCOc1ccc(CCNC(=O)c2nnc(Cc3cc(OC)c(OC)c(OC)c3)o2)cc1OCC 5.86%
CCCCN1C(=O)CN(C2CCCCCC2)C(=O)C1c1ccc(OCCC)c(OC)c1 (configuration not stated) -14.6%
COC(=O)c1c(-c2ccc(Cl)cc2)noc1N1CCN(c2ccc(C)cc2C)CC1 -4.58%
CC(C)c1ccc(NC(=O)C2CCCN(S(=O)(=O)c3cccc4cccnc34)C2)cc1 (configuration not stated) -15.5%
CCCCN(C)CCCNC(=O)C1CCN(c2nc3ccc(CC)cc3s2)CC1 4.94%
COc1ccc(OC)c(NC(=O)c2noc3c2CCCC3)c1 -23.8%
CCOC(=O)Cc1ccc(NC(=O)N2CCOc3ccc(C)cc32)cc1 -24.5%
CCOC(=O)c1cc(S(=O)(=O)N2CCN(c3ccccc3)CC2)[nH]n1 -25.8%
CCOC(=O)Cn1c(=O)oc2cc(S(=O)(=O)N3CCN(c4cccc(C)c4C)CC3)ccc21 5.1%
Cc1ccc2nc(N(Cc3cccnc3)C(=O)COc3ccccc3)sc2c1 -11.2%
O=C(Nc1c(Cl)cccc1Cl)c1cc(-c2ccc3c(c2)OCO3)on1 2.98%
Cc1ccc(OC(C)C(=O)Nc2nonc2-c2ccc(Br)cc2)cc1C (configuration not stated) -4.28%
CCc1nnc2c3ccccc3nc(Nc3ccc(C(C)=O)cc3)n12 2.48%
COc1cc(OC)c(OC)cc1/C=C/c1nc2cc3ccccc3cc2c(=O)n1-c1ccc(Cl)cc1 -12.1%
CCOc1ccccc1NC(=O)CSc1nc2c(oc3ccccc32)c(=O)n1-c1ccc(C)c(C)c1 -23.7%
Cc1ccc(Nc2c(-c3c[nH]c4ccccc34)nc3cc(C)ccn23)cc1 -6.82%
COc1ccc(C(=O)NCC(c2cccnc2)N2CCc3ccccc32)cc1 (configuration not stated) -25.5%
CCOC(=O)c1c(N)n(-c2ccc(C)c(Cl)c2)c2nc3ccccc3nc12 -7.22%
Cc1ccc(Oc2c(C(F)(F)F)oc3c(CN4CCCCC4C)c(O)ccc3c2=O)cc1 (configuration not stated) -24.6%
COc1ccc(-c2nn3c(=O)cc(CN4CCN(C(=O)c5ccc(C(C)(C)C)cc5)CC4)nc3s2)cc1 7.8%
CC(C)OCCCNC(=O)c1ccc2c(c1)N(Cc1c(F)cccc1Cl)C(=O)c1ccccc1S2 -31.7%
CCOC(=O)CC(NS(=O)(=O)c1ccc2[nH]c3c(c2c1)CCCC3)c1ccccc1Cl (configuration not stated) 37.1%
CC1=C(c2ccc(C)c(C)c2)S(=O)(=O)N(Cc2ccc(C(=O)NCc3cccc(C)c3)cc2)C1=O -16.7%
O=C(CCC1N=C2c3ccccc3N=C(SCc3ccc(F)cc3)N2C1=O)NCc1cccs1 (configuration not stated) -9.75%
Cc1cccc(NC(=O)c2oc3ccccc3c2NC(=O)Cc2coc3c(C)c(C)ccc23)c1 -0.207%
CCC(C(=O)Nc1cc(Cl)ccc1OC)n1nc(-c2ccccc2)ccc1=O (configuration not stated) 0.499%
COc1ccc2c(c1OC)C(=O)O[C@@H]2[C@H]1c2c(cc3c(c2OC)OCO3)CCN1C -7.71% and -19.6%
COc1cc(C(=O)Nc2ccc3nc(SCc4ccc(C)cc4)sc3c2)cc(OC)c1OC -8.37%
CC(C)(C)OC(=O)N1CCC(c2c(C(=O)N3CCN(C(=O)c4ccco4)CC3)cnn2-c2cccc(F)c2)CC1 -11.5%
CCOc1ccc(-n2c(SCC(=O)N3CCOCC3)nc3c([nH]c4ccccc43)c2=O)cc1 -8.89%
CC(=O)c1ccc(S(=O)(=O)Nc2cccc(-c3ccc(N4CCCCCC4)nn3)c2)cc1 -8.37%
CCCC(=O)N1CCN(c2nc3c(OC)ccc(C)c3s2)CC1 2.38%
CCN(c1ccccc1)S(=O)(=O)c1nnc(NC(=O)c2cccs2)s1 49%
Cc1ccc(C)c(Nc2nnc(-n3nc(C)cc3C)c3ccccc23)c1 1.57%
O=C(Nc1cccc(F)c1)c1ccc2snnc2c1 -4.25%
Cc1ccc(-n2nc(C(=O)N3CCC(C)CC3)c(=O)n(C)c2=O)cc1 -4.43%
O=C(NCc1ccc(Cl)cc1)c1cnc(N2CCCCC2)c2ccccc12 -11.9%
Cc1cccc(N2CCN(CCNC(=O)C3COc4ccccc4C3)CC2)c1C (configuration not stated) -5.76%
O=C(O)c1cc(-n2c(/C=C\c3ccc(F)cc3)nc3ccccc3c2=O)ccc1Cl -10.9%
Cc1ccc(CNC(=O)C(CC(C)C)NS(=O)(=O)c2ccc3c(c2)oc(=O)n3C)cc1 (configuration not stated) -6.66%
CSc1ccc(CCNC(=O)CCc2c(C)nc3c(c(C)nn3-c3ccccc3)c2C)cc1 16%
O=C(NC1CC(=O)N(c2cccc(F)c2)C1)c1ccc(Br)o1 (configuration not stated) -0.782%
COc1ccc(CNC(=O)C2CCN(Cc3nc(-c4ccc(Cl)cc4)oc3C)CC2)cc1 7.36%
Cc1ccc(S(=O)(=O)NCCS(=O)(=O)N2CCN(c3ccccc3)CC2)cc1 -7.53%
Cc1nc(N2CCOCC2)c2c(C(=O)Nc3cccc(C(F)(F)F)c3)c(C)oc2n1 -5.82%
Cc1ccc(Cc2nc3ccccc3nc2SCC(=O)Nc2ccc3c(c2)OCO3)cc1 -9.19%
CC(=O)c1ccc(NC(=O)CCSc2nc(-c3ccco3)cc(C(F)(F)F)n2)cc1 7.78%
Cc1c(S(=O)(=O)c2cccc(Cl)c2)nnn1-c1cccc(C(F)(F)F)c1 -11.3%
